The supplement of paper PMC3334620
In all, about 33,000 sequences were measured (“E-score (-0.5 to 0.5)”: median about -0.035, highest 2% from about 0.35 on). Some of the results follow.

molecular target: T1, Pdr3 (UniProt P33200); assay: PBM E-score (8-mer binding enrichment) (E-score (-0.5 to 0.5)); higher = stronger / more preferred TF binding; most listed sequences are background and not binding sites; conditions: protein concentration: 200 nM; construct: GST-full length
T1 sequence: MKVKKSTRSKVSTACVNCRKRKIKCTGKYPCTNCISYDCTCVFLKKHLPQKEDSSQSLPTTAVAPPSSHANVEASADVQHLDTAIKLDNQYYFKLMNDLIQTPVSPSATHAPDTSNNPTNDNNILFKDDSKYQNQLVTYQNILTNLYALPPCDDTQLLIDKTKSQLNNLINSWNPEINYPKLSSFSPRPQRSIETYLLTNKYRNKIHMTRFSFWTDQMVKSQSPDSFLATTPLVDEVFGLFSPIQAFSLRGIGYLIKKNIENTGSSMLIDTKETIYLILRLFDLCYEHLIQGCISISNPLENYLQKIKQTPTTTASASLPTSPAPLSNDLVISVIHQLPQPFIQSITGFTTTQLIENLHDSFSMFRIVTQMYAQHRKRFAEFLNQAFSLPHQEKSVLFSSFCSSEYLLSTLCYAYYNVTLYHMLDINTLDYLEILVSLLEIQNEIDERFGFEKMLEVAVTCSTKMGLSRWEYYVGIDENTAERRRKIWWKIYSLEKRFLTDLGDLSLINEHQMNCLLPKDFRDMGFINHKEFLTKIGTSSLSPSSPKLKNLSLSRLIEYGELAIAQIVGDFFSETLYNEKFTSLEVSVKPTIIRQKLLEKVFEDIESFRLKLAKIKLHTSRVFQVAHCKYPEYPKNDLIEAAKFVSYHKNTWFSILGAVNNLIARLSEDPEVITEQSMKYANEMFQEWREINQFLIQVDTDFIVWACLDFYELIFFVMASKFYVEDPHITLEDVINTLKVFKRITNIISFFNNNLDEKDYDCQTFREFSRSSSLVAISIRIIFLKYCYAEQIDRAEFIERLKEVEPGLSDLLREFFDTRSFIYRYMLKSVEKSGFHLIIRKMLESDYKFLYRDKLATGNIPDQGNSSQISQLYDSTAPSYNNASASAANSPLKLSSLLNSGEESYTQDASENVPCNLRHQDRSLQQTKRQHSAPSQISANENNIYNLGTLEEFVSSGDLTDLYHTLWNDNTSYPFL
Outline: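 Using PURExpress in vitro transcription/translation, GST-tagged yeast transcription factors were made in full-length or DNA-binding-domain form. These were applied at about 100-200 nM to double-stranded universal all-10-mer Agilent arrays, and bound protein was detected with fluorescent anti-GST. Scans were normalised with masliner before the Universal PBM Analysis Suite assigned E-scores to ungapped eight-base words pooled with their reverse complements.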

Row | Sequence | PBM E-score
1 | CCGGTACC | 0.243
2 | CCAAATCA | -0.0208
3 | GGACGTAA | -0.0005
4 | GGGAACTA | 0.0485
5 | CACGGAGC | 0.374
6 | ACCCCCGA | -0.0135
7 | GCATACCA | 0.0165
8 | ACCCATGA | -0.0559
9 | ACGGATGC | 0.288
10 | TGGATCAA | -0.168
11 | ATAGACCC | 0.154
12 | CAGTCGAC | 0.0911
13 | AGTCTGTA | -0.28
14 | GGCTCCAA | -0.0883
15 | AGAGTGGC | -0.131
16 | GATGAAGA | -0.0239
17 | GAGCCCGC | 0.222
18 | ATCGCATC | 0.121
19 | ATAACGCA | -0.134
20 | GTAGGTAA | -0.11
21 | TAACCACA | -0.227
22 | CCGGAAAG | 0.414

Row | Sequence | PBM E-score
23 | TGTAAACA | -0.148
24 | CATCGCTA | -0.101
25 | GGCTAACC | -0.236
26 | GCTCGTCA | -0.159
27 | AAACTAAA | -0.0271
28 | ACAGCTAC | -0.197
29 | CTAATGTA | -0.0347
30 | GAAGAAAC | 0.0528
31 | CTCTGACC | -0.166
32 | CTTCTGTC | -0.0447
33 | ACATGTAC | 0.0239
34 | CGCATTTC | 0.243
35 | CGGGAAAG | 0.281
36 | ACGGTCAT | 0.163
37 | GAGGCGCA | 0.0691
38 | AAGTGCGC | 0.144
39 | GTATAAAC | 0.0622
40 | CATAAGAA | 0.0614
41 | GGAGCCTA | 0.14
42 | CTAATAGC | -0.241
43 | AAATAGGC | 0.14
44 | ATGTCAAG | -0.185

Row | Sequence | PBM E-score
45 | AGTATGGG | -0.0615
46 | TAAATGGA | -0.0165
47 | GAAGACCC | 0.0497
48 | CCCAAATA | -0.132
49 | AATTATAA | 0.12
50 | TACCTTGA | 0.0326
51 | ATACCGAT | 0.136
52 | TAAGAAGA | 0.13
53 | AAAGATGC | -0.105
54 | ACCATACT | 0.0155
55 | CGACTCCC | -0.14
56 | GCGAACCA | -0.0454
57 | CCACGCAG | -0.11
58 | ATGAAAGG | 0.014
59 | ATGCGATC | -0.0108
60 | CATTAATC | -0.0566
61 | GGAGGTCA | -0.0982
62 | AGGACCAT | -0.155
63 | GATCATAA | 0.0465
64 | AAACATAC | -0.107
65 | AGTCCTAC | -0.0319
66 | TCGCGGCA | 0.174

Row | Sequence | PBM E-score
67 | CCTACGGC | -0.156
68 | CACGACTG | -0.225
69 | ACCGTTGC | 0.0446
70 | CGAGCTAC | -0.0374
71 | TACGGTCA | 0.0404
72 | AGGTTGCG | -0.311
73 | GGACAACA | 0.0863
74 | ACCTTCGA | -0.0301
75 | ACACGACT | -0.0613
76 | CATCGCAA | -0.196
77 | GAACCTGA | -0.131
78 | CAGCTTAA | -0.00551
79 | GGAAAGTA | 0.223
80 | CCCGTCAG | 0.0914
81 | AACTGTGA | 0.0734
82 | ACCCCTCA | -0.0399
83 | TCACGGGA | 0.203
84 | AGATACAT | 0.0262
85 | TGACAAAA | -0.115
86 | TGCGCCCA | -0.0623
